In PubChem BioAssay AID504832 (National Center for Advancing Translational Sciences (NCATS), 2011):
About 18,000 (5.8%) of roughly 310,000 compounds were called active. This list was built around the results that the source calls inconclusive (neither active nor inactive); the mix of calls is not that of the screen. Calls come from the whole dose curve; as a rule, active = well fitted inhibition curve with a large enough effect; inconclusive = small, poorly fitted or top-dose-only effect, or another doubt; inactive = no such curve, though single readings can be large or run the other way. Potencies of inconclusive entries are left out as doubtful fits.

experiment: Primary qHTS for delayed death inhibitors of the malarial parasite plastid, 48 hour incubation; settings: P. falciparum luciferase growth in erythrocytes; series mostly up to 28.7 µM; activity change, negative = inhibition: at the top concentration
In short: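 First compound was added to culture medium, then infected red cells at 0.1% parasitemia and 2% hematocrit (final). After incubation at 37 C under 5% CO2, luciferase detection reagent was dispensed and light output recorded.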
% is set by controls: 0 for no effect and ±100 for the full control effect; potency is the fitted concentration of half-maximal effect; tags give direction and shape of the fitted curve.

| Structure (SMILES) | activity change, negative = inhibition | Potency |
| --- | --- | --- |
| COCc1nc2c([nH]1)c(=O)n(C)c(=O)n2CC(C)C | inactive: 30.8% | – |
| Cc1ccccc1C(=O)Nc1nnc(-c2ccc(C(C)(C)C)cc2)s1 | inactive: 22% | – |
| Cc1coc2c(C)c3oc(=O)c(CCC(=O)N4C[C@H]5C[C@@H](C4)c4cccc(=O)n4C5)c(C)c3cc12 | – | active: 3.29 µM |
| O=C(/C=C/c1ccc(OCc2ccccc2)c(OCc2ccccc2)c1)c1cccnc1 | – | inconclusive [inhibitor, single point] |
| Cc1cc(NC(=O)C2CC2)ncc1NC(=O)c1ccccn1 | inactive: 33.2% | – |
| Cc1ccc(N(C(=O)c2ccco2)C(C(=O)NC2CCCC2)c2cccnc2)cc1 (stereo unspecified) | – | inconclusive [inhibitor, single point] |
| C=CCOc1ccc(/C=C/C(=O)OCc2csc(CC(=O)Nc3ccccc3C)n2)cc1 | – | inconclusive [inhibitor, partial curve, poor fit] |
| COc1ccc(CC(=O)Nc2nc(-c3ccccc3)c(C(C)=O)s2)cc1OC | – | inconclusive [inhibitor, partial curve, poor fit] |
| CSc1sc(C(=O)NC(=O)NCc2ccncc2)c(C)c1-c1ccon1 | inactive: 0% | – |
| C#CCOCCOCCOCCNc1nc(N2CCOCC2)nc(N2CCN(C(=O)[C@H](CCCCN)n3cc([C@@H](N)C(C)CC)nn3)CC2)n1 (stereo partly specified) | inactive: 17.6% | – |
| CCCCCCCCCC(=O)N1CCN(c2cc3c(cc2F)c(=O)c(C(=O)O)cn3CC)CC1 | – | inconclusive [inhibitor, partial curve] |
| O=C(Nc1ccc(F)cc1)N1CCN(CCc2ccccc2)CC1 | – | inconclusive [inhibitor, partial curve, poor fit] |
| Cc1nc2sccn2c(=O)c1S(=O)(=O)NCC1CCN(Cc2ccccc2Cl)CC1 | inactive: -11.8% | – |
| CC(C)(C)C1CCC(=NNS(=O)(=O)c2ccc(Br)cc2)CC1 (stereo unspecified) | inactive: -5.67% | – |
| O=C(NCc1ccc2c(c1)OCO2)c1ccc(N2CCCC2=O)cc1 | inactive: 17.9% | – |
| CCOC(=O)CSC1=Nc2ccccc2C2=NC(CC(=O)NCc3ccc(OC)cc3)C(=O)N12 (stereo unspecified) | – | active: 6.57 µM |
| COc1ccccc1N1CCN(C(=O)CNC(=O)c2cn(-c3ccccc3OC)c(=O)c3ccccc23)CC1 | – | inconclusive [inhibitor, partial curve] |
| COc1ccc(CC2(CO)CCN(Cc3cccc4nccnc34)CC2)cc1 | inactive: -5.03% | – |
| Cc1ccc(C)c(-c2cc(C(=O)N/N=C/c3cccnc3)c3ccccc3n2)c1 | – | inconclusive [inhibitor, single point] |
| CCCNC(=O)Cc1c(OC)ccc2cc(Br)ccc12 | inactive: -6.1% | – |
| Cc1cc(=O)[nH]c(N/N=C/c2cn(CCC#N)nc2-c2ccccc2)n1 | inactive: 9.21% | – |
| CC(C)(C)c1nnc(NC(=O)c2cc(-c3ccccc3)nc3ccccc23)s1 | – | inconclusive [inhibitor, partial curve, poor fit] |
| Cc1ccc(C(C(=O)NCC2CCCO2)N(C(=O)c2snc(C(N)=O)c2N)c2ccccc2)o1 (stereo unspecified) | inactive: -23.5% | – |

| Structure (SMILES) | activity change, negative = inhibition | Potency |
| --- | --- | --- |
| Cn1nnnc1N=N/C(=N/Nc1ccccc1)c1ccccc1 | – | inconclusive [inhibitor, partial curve, poor fit] |
| CC1(c2ccc3c(c2)OCCO3)NC(=O)N(CC(=O)Nc2ccccc2F)C1=O (stereo unspecified) | inactive: 3.37% | – |
| Cc1nn2c(-c3ccc(S(=O)(=O)N4CCN(C)CC4)o3)nnc2c2ccccc12 | – | inconclusive [inhibitor, partial curve, poor fit] |
| COc1ccc(CCNC(=S)N2CCN(S(=O)(=O)c3ccc(C)cc3)CC2)cc1 | – | active: 2.94 µM |
| COc1cccc(NC(=O)c2ccc(S(=O)(=O)N3CCCCC3)cc2)c1 | – | inconclusive [inhibitor, single point] |
| COc1ccc2cc(C(=O)Nc3ccccc3)sc(=O)c2c1OC | inactive: -7.13% | – |
| CC(C)(C)C(=O)N1CCN(c2ccc(NC(=O)c3ccc([N+](=O)[O-])o3)cc2)CC1 | – | inconclusive [inhibitor, full curve, poor fit] |
| Nc1cccc(-c2cc3ccccc3oc2=O)c1 | inactive: 62.5% | – |
| C/C(=N\OCC(=O)Nc1ccc(OC(F)(F)F)cc1)c1ccc2c(c1)OCCO2 | inactive: -3.08% | – |
| Cc1ccc(NP(=O)(Nc2ccc(C)cc2)Nc2ccc(C)cc2)cc1 | – | active: 11.7 µM |
| CC(C)Cc1nc(N2CCN(C(=O)Cc3ccccc3)CC2)c(C#N)c2c1COC(C)(C)C2 | inactive: -25.3% | – |
| COc1ccc(-n2c(SCC#N)nc3c(sc(=S)n3-c3ccccc3)c2=O)c(OC)c1 | inactive: -27.9% | – |
| CCn1c(/C=C/N(C(C)=O)c2ccccc2)[n+](CCCS(=O)(=O)[O-])c2cc(Cl)c(Cl)cc21 | inactive: -1.49% | – |
| COc1ccc(-c2[nH]ncc2CN2CCC(c3ccncc3)CC2)cc1F | inactive: 1.97% | – |
| CN(Cc1ccc(C(C)(C)C)cc1)C(=O)c1ccc2c(c1)OCO2 | – | inconclusive [inhibitor, single point] |
| COC(=O)c1ccc(Oc2cc(C)nc(-n3nc(C)cc3C)n2)cc1 | – | inconclusive [inhibitor, partial curve] |
| COc1ccc(CNC(=O)C(C)n2ccc3cc(S(=O)(=O)N4CCCCCC4)ccc32)cc1 (stereo unspecified) | – | inconclusive [inhibitor, partial curve, poor fit] |
| Cc1ccc(N2C(=O)c3cccc4c(C(=O)O)ccc(c34)C2=O)cc1 | – | inconclusive [inhibitor, single point] |
| CSCCC(N=C(NS(=O)(=O)c1ccc(C)cc1)c1ccccc1)C(=O)O (stereo unspecified) | inactive: 7.43% | – |
| COc1ccc(NC(=O)CN(C)C(=O)c2cc(C3CC3)nn2-c2ccccc2)cc1 | – | inconclusive [inhibitor, single point] |
| Cc1cccc(NS(=O)(=O)c2cc(OCC(N)=O)c(C)cc2Cl)c1 | inactive: -11.9% | – |
| Cc1ccc(S(=O)(=O)N2CCC(C(=O)Nc3ncccc3O)CC2)cc1 | – | inconclusive [inhibitor, partial curve] |
| CCc1cccc2c1NC(=O)C21N2CCCC2C(C(=O)c2ccc3ccccc3c2)C12C(=O)Nc1ccccc12 (stereo unspecified) | – | inconclusive [inhibitor, single point] |
